# Assay results as given in paper PMC6919601, “Identification of Plasmodium dipeptidyl aminopeptidase allosteric inhibitors by high throughput screening” (PLoS ONE, 2019).
# Out of some 110,000 compounds screened, about 230 (0.21%) showed an effect of 50% or more. This is one part of the list.
# Target: DPAP1 (Plasmodium falciparum, UniProt Q8IIJ9)
# Assay: primary screen, percent inhibition; read by cleavage of a fluorogenic dipeptide substrate; higher = more effect of the substance
# Parameters: species or system P. falciparum D10 trophozoite lysates; single well
# 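Also: 30 min substrate incubation versus DMSO and 10 µM JCP410 controls.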
# DPAP1, sequence (Q8IIJ9 whole entry, looked up): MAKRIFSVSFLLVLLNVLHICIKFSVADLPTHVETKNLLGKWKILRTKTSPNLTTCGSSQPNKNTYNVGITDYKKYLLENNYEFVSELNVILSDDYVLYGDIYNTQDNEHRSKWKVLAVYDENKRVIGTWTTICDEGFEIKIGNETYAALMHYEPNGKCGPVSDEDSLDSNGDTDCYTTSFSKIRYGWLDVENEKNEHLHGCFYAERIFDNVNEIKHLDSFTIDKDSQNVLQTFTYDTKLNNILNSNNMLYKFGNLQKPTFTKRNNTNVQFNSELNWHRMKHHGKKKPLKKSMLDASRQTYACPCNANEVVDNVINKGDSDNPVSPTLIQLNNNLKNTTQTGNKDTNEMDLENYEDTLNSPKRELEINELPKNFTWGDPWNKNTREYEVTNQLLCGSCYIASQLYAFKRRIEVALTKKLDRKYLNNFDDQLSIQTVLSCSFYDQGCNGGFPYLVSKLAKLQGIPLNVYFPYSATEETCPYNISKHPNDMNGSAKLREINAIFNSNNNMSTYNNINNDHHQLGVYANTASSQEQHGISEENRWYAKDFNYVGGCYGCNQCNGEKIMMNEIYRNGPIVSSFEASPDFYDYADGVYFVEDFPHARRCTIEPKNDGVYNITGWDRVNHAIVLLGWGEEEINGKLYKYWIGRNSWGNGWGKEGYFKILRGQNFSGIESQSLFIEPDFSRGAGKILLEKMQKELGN
row,SMILES,% Inhibition @ 10 uM [%]
1,CSc1[nH]c2ccccc2c1CCN1CCCC1,1.17
2,COc1cccc(-n2c(SCC(=O)N3CC(C)CC(C)C3)nc3nnc(C)c-3c2N)c1 (stereo not shown),-0.458
3,COc1ccc(Cl)cc1C(=O)Nc1ccc(S(=O)(=O)N2CCC(C)CC2)cc1,1.83
4,Cc1cc(NC(=O)COc2ccccc2)ccc1Cl,-4.82
5,Clc1ccc(CN2CCN(c3ccccn3)CC2)cc1,-3.82
6,COCc1cc(O)n2nc(C)nc2n1,-2.91
7,Cc1ccc(C)c(OCCOCCN2CCN(C)CC2)c1,4.57
8,CCn1c2ccccc2c2cc(C3C(C#N)=C(N)Oc4[nH]nc(C)c43)ccc21 (stereo not shown),3.05
9,CCN(CC)C(=O)CCCOc1ccc(Cl)cc1Cl,5.55
10,C=CCOc1ccccc1CN1CCSCC1,2.7
11,CCOC(=O)C1=C(N)OC2=C(C(=O)CC(C)(C)C2)C1c1ccc(O)c(OC)c1 (stereo not shown),-5.7
12,Cc1ccc(-c2nn(C)c(=O)c3ccccc23)cc1CNC(=O)c1ccc(Cl)cc1,-1.17
13,CCOc1nc(-c2ccc(C)cc2)ccc1-c1noc(COC)n1,3.73
14,Cc1cccc(CN2C(=O)CSc3nc(C)cc(C)c32)c1,-7.93
15,CN1CCN(CCc2nnc(S)n2-c2cccc(OCc3ccccc3)c2)CC1,20.7
16,CCC(C)Nc1nc(OCC(F)(F)F)nc(OCC(F)(F)F)n1 (stereo not shown),19
17,CCC(=O)N1c2ccccc2N=C2CC(c3ccco3)CC(O)=C2C1c1ccc(OC)cc1 (stereo not shown),2.24
18,CC(=O)C1(C)N(O)C(C)(C)C(c2ccc(C)cc2)=[N+]1[O-] (stereo not shown),-3.41
19,CCCCNC(=O)c1ccc(CS(=O)Cc2ccc(Cl)cc2)o1 (stereo not shown),-5.12
20,Cc1ccccc1C(=O)NC1(C(F)(F)F)C(=O)N(CC2CCCO2)C2=C1C(=O)CC(C)(C)C2 (stereo not shown),1.96
21,Cc1cc(C(=O)N2CCc3ccccc3C2)on1,-1.7
22,C/N=c1\c(N)c(O)oc2ccccc12,-3.55

row,SMILES,% Inhibition @ 10 uM [%]
1,COc1ccc(C2C(C(=O)Nc3ccc(Cl)cc3)=C(C)Nc3ncnn32)cc1 (stereo not shown),-0.425
2,O=C(NCCc1ccccc1)c1ccccc1Br,2.13
3,O=C1C2C(c3ccccc3)OC3(C(=O)c4ccccc4C3=O)C2C(=O)N1c1ccccc1Cl (stereo not shown),16
4,CCc1ccc(/N=C2\S/C(=C/c3ccncc3)C(=O)N2C)cc1,-1.24
5,N#Cc1ccc(-c2ccc(OCC(=O)Nc3cccnc3)cc2)cc1,3.24
6,CCN(CC)C(=O)c1sc(NC(=O)COc2ccc(Cl)cc2)c(C#N)c1C,-4.75
7,c1ccc(-c2cc(-n3c(-c4ccccc4)nc4ccccc43)n(-c3ccccc3)n2)cc1,-0.807
8,O=C(Nc1nnc(C2CCCCC2)s1)C1c2ccccc2Oc2ccccc21,-1.52
9,Cc1ccccc1-n1cc(-c2ccc3c(c2)OCO3)nc1S,83.7
10,Cc1nn(-c2ccc3nnc(C)n3n2)c(C)c1CCC(=O)O,0.708
11,COc1cccc(/C=C/C2=NN(c3ccc(Cl)c(Cl)c3)C(c3cccc(OC)c3OC)C2)c1OC (stereo not shown),1.8
12,CCC(C)NC(=O)c1c(C)cc(=O)oc1C (stereo not shown),-4.06
13,Cc1ccc(Nc2nc(-c3cccc(N4C(=O)c5ccccc5C4=O)c3)cs2)cc1C,-2.51
14,Cc1cc2c(cc1C)[n+](C)cn2CC(O)COCC1CC=CCC1 (stereo not shown),-1.06
15,Cc1ccc(S(=O)(=O)N(CC(=O)NC2CC3CCC2C3)c2ccc(F)cc2)cc1 (stereo not shown),-1.04
16,CN1CCc2c1nc1ccc(Cl)cc1c2N,7.92
17,Cc1ccc2c(c1)-c1c(cnn1CC(=O)N1CCCN(Cc3ccccc3Cl)C1)CO2,-5.72
18,Cc1ccc(C)c(Cn2c3ccccc3c3cnn(CC(=O)NCCCN4CCCC4=O)c(=O)c32)c1,1.8
19,CS(=O)(=O)c1nc(S(=O)(=O)c2ccc(Cl)cc2)c(N2CCCCCC2)s1,1.15
20,NC(=O)C1CCN(Cc2ccc(F)c(Br)c2)CC1,3.48
21,COCC(C)NC(=O)c1cnn2c1NC(c1ccccc1)CC2C(F)(F)F (stereo not shown),-3.1
22,O=c1c(N2CCCC2)c(Cl)cnn1Cc1ccccc1,5.09

row,SMILES,% Inhibition @ 10 uM [%]
1,COc1ccc(S(=O)(=O)Nc2ccc(-c3csc(C)n3)cc2)cc1OC,-1.99
2,CCOC(=O)N1CCN(CC(O)COc2ccc(OC)cc2)CC1 (stereo not shown),5.67
3,CC(C)NC(=O)c1cc2c(-c3ccc(Cl)cc3)nn(C)c2s1,-4.96
4,O=C1N/C(=C/c2ccc(Sc3ccccc3)o2)C(=O)N1Cc1ccccc1F,-0.0626
5,Nc1ccc(-c2nc3ccccc3o2)c(O)c1,-5.68
6,COCCNC(=O)c1ccc(CS(=O)(=O)c2ccccc2)o1,-4.96
7,N#CCNC(=O)C(NC(=O)c1ccccc1)SCCc1ccccc1 (stereo not shown),-1.83
8,Cc1oc2ncn3nc(COc4cccc(Cl)c4)nc3c2c1C,-1.86
9,CN(Cc1c(F)cccc1F)CC(O)c1ccccc1 (stereo not shown),-1.75
10,Cc1ccccc1Cn1c2ccccc2c2cnn(CC(=O)N(C)Cc3ccccc3)c(=O)c21,1.8
11,Cc1cccc(C(=O)Nc2nn3c(-c4ccccc4C)nnc3s2)c1,12
12,CC(C)(C)NC(=O)CSCc1c(Cl)cccc1Cl,6.24
13,CC(C)C[C@H](NC(=O)OCc1ccccc1)C(=O)NC1(C#N)CCS(=O)(=O)CC1,18
14,Cc1ccc(CC2(NC(=O)c3ccccc3)N=C3C=CC=CN3C2=O)cc1 (stereo not shown),-0.637
15,Cc1cc(C)c2nc(N3CCC(C(=O)N4CCN(C(=O)c5ccco5)CC4)CC3)sc2c1,-3.35
16,CN1CCN(Cc2nc3c(c(=O)n(C)c(=O)n3C)n2Cc2ccc(F)cc2)CC1,-8.06
17,Cc1ccc(-c2cc(C(=O)NCC3CCCO3)c3ccccc3n2)cc1C (stereo not shown),-0.519
18,CC(=O)Nc1ccc(-n2c(C)ccc2C)cc1,-0.736
19,O=C(/C=C/c1ccc2c(c1)OCO2)c1ccncc1,-6.47
20,COc1cc(CN2CCN(C(=O)Cc3ccccc3)CC2)cc(OC)c1OC,2.3
